Results are given in words; binding and its absence hold for the method and conditions named. Binding seen in cells or lysates may run through a third protein. Some entries that bind do so weakly or less than the wild type. For some assays here: Tags and fused reporters may be left off the sequences shown.
Columns and labels:
[1] = molecular target: T1, proto-Dbl (dbl proto-oncogene product), endogenous in SKOV-3 cells (human (endogenous in SKOV-3)) (UniProt P10911); experiment: co-IP; endogenous CHIP co-immunoprecipitated by Dbl Ab in SKOV-3 cells (with and without GRP75 knockdown)
T1 sequence: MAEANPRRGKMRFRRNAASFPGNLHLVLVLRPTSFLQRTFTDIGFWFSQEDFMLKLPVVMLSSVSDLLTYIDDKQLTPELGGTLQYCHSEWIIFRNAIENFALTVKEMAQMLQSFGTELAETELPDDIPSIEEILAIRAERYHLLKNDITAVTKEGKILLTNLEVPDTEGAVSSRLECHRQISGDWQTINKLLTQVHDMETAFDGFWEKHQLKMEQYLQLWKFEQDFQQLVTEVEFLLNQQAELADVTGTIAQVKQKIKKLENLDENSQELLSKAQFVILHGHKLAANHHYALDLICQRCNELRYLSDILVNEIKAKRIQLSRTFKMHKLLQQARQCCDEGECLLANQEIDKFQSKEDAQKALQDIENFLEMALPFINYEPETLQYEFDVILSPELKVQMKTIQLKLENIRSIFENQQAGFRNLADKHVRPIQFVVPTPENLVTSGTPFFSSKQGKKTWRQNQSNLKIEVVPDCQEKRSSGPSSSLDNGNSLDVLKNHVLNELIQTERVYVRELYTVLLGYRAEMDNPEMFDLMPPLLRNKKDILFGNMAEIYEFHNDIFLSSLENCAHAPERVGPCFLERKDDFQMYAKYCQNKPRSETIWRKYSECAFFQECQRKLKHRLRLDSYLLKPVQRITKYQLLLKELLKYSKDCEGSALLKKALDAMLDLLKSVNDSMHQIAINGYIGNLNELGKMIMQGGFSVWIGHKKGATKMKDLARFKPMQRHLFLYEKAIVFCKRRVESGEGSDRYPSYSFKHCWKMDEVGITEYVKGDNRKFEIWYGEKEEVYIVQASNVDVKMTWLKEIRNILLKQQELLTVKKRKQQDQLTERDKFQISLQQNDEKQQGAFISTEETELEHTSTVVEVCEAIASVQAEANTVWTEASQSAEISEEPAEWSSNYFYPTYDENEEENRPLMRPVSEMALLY

Sequences of proteins named here, by UniProt entry; tags and fusion partners are left off. Residues count along the entry.
UniProt Q9UNE7: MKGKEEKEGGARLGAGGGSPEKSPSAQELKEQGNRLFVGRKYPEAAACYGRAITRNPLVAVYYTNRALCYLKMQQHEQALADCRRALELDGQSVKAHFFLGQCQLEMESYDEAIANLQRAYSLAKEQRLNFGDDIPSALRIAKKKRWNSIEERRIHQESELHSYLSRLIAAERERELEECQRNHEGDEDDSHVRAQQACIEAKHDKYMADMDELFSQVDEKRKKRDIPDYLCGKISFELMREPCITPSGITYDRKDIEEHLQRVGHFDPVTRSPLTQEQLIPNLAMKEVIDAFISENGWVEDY
UniProt P38646, residues 47-679: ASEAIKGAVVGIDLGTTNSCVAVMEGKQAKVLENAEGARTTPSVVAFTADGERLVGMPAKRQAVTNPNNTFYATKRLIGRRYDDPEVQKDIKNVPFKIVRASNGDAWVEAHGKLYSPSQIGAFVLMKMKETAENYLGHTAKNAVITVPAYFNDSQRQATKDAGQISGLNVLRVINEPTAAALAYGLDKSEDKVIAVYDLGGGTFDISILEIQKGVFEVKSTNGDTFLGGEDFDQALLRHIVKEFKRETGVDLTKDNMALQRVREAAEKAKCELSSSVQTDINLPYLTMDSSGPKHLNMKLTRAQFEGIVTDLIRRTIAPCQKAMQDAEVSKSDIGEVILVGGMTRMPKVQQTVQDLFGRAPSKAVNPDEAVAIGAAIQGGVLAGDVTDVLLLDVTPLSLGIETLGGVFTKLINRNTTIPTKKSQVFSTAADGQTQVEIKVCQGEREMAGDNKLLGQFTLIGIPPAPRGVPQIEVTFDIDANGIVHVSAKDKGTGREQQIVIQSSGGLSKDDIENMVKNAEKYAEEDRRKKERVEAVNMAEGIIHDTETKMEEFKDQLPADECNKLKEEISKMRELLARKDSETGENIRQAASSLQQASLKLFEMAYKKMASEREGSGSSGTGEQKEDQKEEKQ

[2] = molecular target: CHIP, endogenous in SKOV-3 cells (human (endogenous in SKOV-3)) (UniProt Q9UNE7); experiment: co-IP; co-IP of GRP75 with endogenous CHIP and with exogenous myc-CHIP (Supplementary Fig. 6); cells and antibodies not stated in the text shown
[3] = molecular target: T2, GST-proto-Dbl (residues 1-925) (human) (UniProt P10911); experiment: pull-down; GRP75 KD (G3) and NC Cos-7 stable cell lines co-transfected with GST-Dbl constructs and myc-CHIP; GST-proto-Dbl pulled down from lysate (the legend says by mouse anti-GST Ab); Western blot for CHIP, Hsc70, HSP90
T2 sequence: T1 sequence

[4] = molecular target: T2, GST-proto-Dbl (residues 1-925) (human); experiment: co-IP; GRP75 KD (G3) and NC Cos-7 stable cells co-transfected with GST-Dbl constructs and myc-CHIP; 48 h after transfection GST-Dbl immunoprecipitated by mouse anti-GST Ab, CHIP detected by rabbit anti-Myc Ab
[5] = molecular target: GRP75 (mortalin/HspA9), endogenous in SKOV-3 cells (human (endogenous in SKOV-3)) (UniProt P38646); experiment: co-IP; endogenous proteins in SKOV-3 lysate, both directions: mouse anti-GRP75 Ab and rabbit anti-Dbl Ab, isotype-matched IgG as control; Western blot

Molecule: CHIP, endogenous in SKOV-3 cells (from UniProt Q9UNE7 1-303) (enzyme)
- binding [1]: binds

Molecule: GRP75 (mortalin/HspA9), endogenous in SKOV-3 cells (from UniProt P38646 47-679)
- binding [2]: no binding

Molecule: myc-CHIP (carboxyl terminus of Hsc70/Hsp70/90-interacting protein, myc-tagged) (from UniProt Q9UNE7 1-303) (enzyme)
- binding [3]: binds
- binding [4]: binds

B1: proto-Dbl (dbl proto-oncogene product), endogenous in SKOV-3 cells (protein, UniProt P10911 1-925)
chain: T1 sequence
- binding [5]: no binding
